According to PMC4336329 (PLoS ONE, 2015):
The whole screen tested about 310,000 compounds, of which about 2,200 (0.71%) showed an effect of 50% or more. The effect is printed as a negative number. Some of the results follow.

These compounds were tested against human ether-à-go-go-related gene (hERG) potassium channel (human, UniProt Q12809) (assay: primary screen, population patch clamp on CHO cells stably expressing hERG).
Chain of human ether-à-go-go-related gene (hERG) potassium channel (Q12809 whole entry, looked up): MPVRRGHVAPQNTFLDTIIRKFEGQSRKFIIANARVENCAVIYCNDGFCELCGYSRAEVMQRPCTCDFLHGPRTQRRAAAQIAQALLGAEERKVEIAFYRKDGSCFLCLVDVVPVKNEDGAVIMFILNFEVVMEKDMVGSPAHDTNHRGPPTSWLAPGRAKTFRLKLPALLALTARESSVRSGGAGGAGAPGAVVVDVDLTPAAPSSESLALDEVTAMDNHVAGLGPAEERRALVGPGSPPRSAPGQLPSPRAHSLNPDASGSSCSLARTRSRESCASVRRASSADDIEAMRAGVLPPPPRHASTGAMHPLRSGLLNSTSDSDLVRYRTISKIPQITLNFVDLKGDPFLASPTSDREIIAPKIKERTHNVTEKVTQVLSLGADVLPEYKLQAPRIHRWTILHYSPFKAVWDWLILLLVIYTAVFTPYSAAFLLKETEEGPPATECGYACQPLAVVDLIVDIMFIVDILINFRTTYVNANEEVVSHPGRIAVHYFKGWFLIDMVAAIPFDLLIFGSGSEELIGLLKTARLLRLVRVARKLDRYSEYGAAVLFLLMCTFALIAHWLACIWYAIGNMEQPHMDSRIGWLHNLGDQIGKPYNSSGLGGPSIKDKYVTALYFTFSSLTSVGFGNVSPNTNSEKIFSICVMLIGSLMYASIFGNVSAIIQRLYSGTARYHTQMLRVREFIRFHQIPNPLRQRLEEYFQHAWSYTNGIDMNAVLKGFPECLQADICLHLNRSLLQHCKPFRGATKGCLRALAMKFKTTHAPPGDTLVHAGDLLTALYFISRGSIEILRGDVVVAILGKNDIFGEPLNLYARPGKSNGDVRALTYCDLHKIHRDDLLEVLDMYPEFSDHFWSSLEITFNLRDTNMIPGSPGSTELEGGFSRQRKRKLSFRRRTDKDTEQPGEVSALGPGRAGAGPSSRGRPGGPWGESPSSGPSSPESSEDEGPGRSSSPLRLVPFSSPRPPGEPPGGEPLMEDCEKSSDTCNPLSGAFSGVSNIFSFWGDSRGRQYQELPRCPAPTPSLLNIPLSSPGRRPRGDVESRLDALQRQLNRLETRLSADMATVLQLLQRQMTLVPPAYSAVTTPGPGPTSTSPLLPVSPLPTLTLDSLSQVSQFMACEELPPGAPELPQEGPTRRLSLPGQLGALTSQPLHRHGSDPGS

SMILES | hERG current change (%, negative = inhibition) at 1uM
CCOC(=O)C1=C(C(F)(F)F)Nc2ncnn2C1c1cc(OC)ccc1OC (stereo not shown) | 8.11%
Cc1ccc(Nc2ncc3c(n2)CC(C)(C)CC3=O)cc1 | 9.35%
Cn1c(NC(=O)c2ccco2)c(-c2ccccc2Cl)c(=O)c2ccccc21 | -6.42%
COc1ccc(CCC(=O)Nc2cccc(S(=O)(=O)N3CCCCCC3)c2)cc1OC | 4.98%
NC(=O)c1ccc(NC(=O)COC(=O)CCCN2C(=O)c3cccc4cccc(c34)C2=O)cc1 | 10.5%
O=C1Oc2ccccc2C(=O)/C1=C/N1CCN(c2ccccc2F)CC1 | 7.34%
Cc1cccc(C(=O)NCCNC(=O)c2cccc(C)c2)c1 | 3.44%
COCc1cccc(C2=CC(=O)C[C@H](c3ccc(F)cc3)C2)c1 | 7.01%
CCC(C)NC(=O)C1CCC(CNS(=O)(=O)c2ccc3c(c2)CC(C)N3C(C)=O)CC1 (stereo not shown) | 10.8%
O=C(Nc1ccccc1)c1ccc(N2CCN(c3ccccn3)CC2)c(S(=O)(=O)N2CCOCC2)c1 | 9.42%
CCC(=O)N1CCC2(CC1)Oc1ccc(F)cc1C(=O)C21CC(c2cccnc2)=NO1 (stereo not shown) | 0.144%
CCCCN(C)C(=O)Cn1nc(-c2ccc(Cl)cc2)ccc1=O | 1.01%
COc1ccc(NC2CCCN(C(=O)c3ccc4[nH]c(C)c(C)c4c3)C2)cc1OC (stereo not shown) | 9.32%
CN1/C(=C\C(=O)COC(=O)C2COc3ccccc3O2)C(C)(C)c2ccccc21 (stereo not shown) | 9.71%
CC(C)c1ccc(O)c(NC(=O)c2cccnc2)c1 | 5.07%
CCOC(=O)Nc1cccc2ccccc12 | 12.3%
CCN(CC(=O)Nc1ccc(NC(C)=O)cc1)C(=O)c1ccc(=O)n(C)n1 | 10.1%
COc1ccc(/C=[N+](\[O-])C2N(c3ccccc3)C(=S)SC2(C)C)cc1OC (stereo not shown) | 8.06%
Cc1ccc(N2N=C(C(=O)O)CCC2=O)cc1Cl | -19.4%
Cc1ccc(S(=O)(=O)N2CCOCC2)cc1NC(=O)COC(=O)c1n[nH]c(=O)c2ccccc12 | 14.4%
COc1ccc2[nH]c(C)c(CCNCc3cc(OC)c(OC)c(OC)c3)c2c1 | 14.6%
O=C(COC(=O)c1ccc2c(c1)OCCO2)NCc1ccccc1 | 13.9%

SMILES | hERG current change (%, negative = inhibition) at 1uM
CN(C)S(=O)(=O)c1cccc(C(=O)OCC(=O)N2c3ccccc3NC(=O)C2(C)C)c1 | 7.91%
CC(C)(C)NC(=O)COC(=O)c1ccccc1Oc1ccccc1 | -0.247%
CCOC(=O)[C@H]1[C@H]2COc3ccc(OC)cc3[C@@H]2N2C(=O)c3cc(C)ccc3NC(=O)[C@@]12C | 8.82%
CC(=O)c1cccc(N(C(=O)CNC(=O)c2ccco2)C(C(=O)NC2CCCC2)c2ccc(C)o2)c1 (stereo not shown) | 17.3%
CCOc1ccc(-c2c(=O)n(OCc3nc4ccccc4[nH]3)c3ccccc3[n+]2[O-])cc1 | 11.5%
CCCc1cc(=O)oc2cc(OCc3ccc(C(=O)O)cc3)ccc12 | 21.4%
Cn1cnnc1SCC(=O)Nc1cc(C(F)(F)F)ccc1N1CCOCC1 | 9.51%
Cc1nn(Cc2ccc(Cl)cc2)c(C)c1NC(=O)c1cc(-c2ccco2)on1 | 9.25%
Cc1ccc(N(Cc2ccco2)C(=O)c2cccc(S(=O)(=O)N(C)C)c2)cc1 | -0.391%
O=C(NCCc1ccc(Cl)cc1)C1CCCN1C(=O)Nc1ccccc1 (stereo not shown) | 8.89%
COc1ccc(OC)c2c1sc(=NC(=O)C1CCCCC1)n2C | -1.81%
O=C(N/N=C1\CCCc2ccccc21)c1ccccc1[N+](=O)[O-] | 1.68%
O=C1c2cc3ccccc3c(-c3ccccc3)c2C(=O)N1c1ccccn1 | 11.3%
O=C(O)c1ccc2c(c1)C(=O)N(c1ccc([N+](=O)[O-])cn1)C2=O | 13.5%
COc1ccccc1CNC(=O)C(NC(=O)c1ccccc1C)C(C)C (stereo not shown) | 11.6%
O=C(Cn1c(=O)oc2cc(S(=O)(=O)N3CCOCC3)ccc21)N1CCc2ccccc2C1 | 4.41%
COc1cc(C(=O)OC(C)C(=O)NC(=O)NC2CCCCC2)ccc1OC(F)F (stereo not shown) | -1.31%
COc1ccc2nc3oc(C(=O)N4CCN(c5cccc(Cl)c5)CC4)cc3cc2c1 | 0.552%
CC(=O)NCC(=O)NC(C(=O)Nc1ccc2c(c1)OCCO2)c1ccc(C)cc1 (stereo not shown) | 11.7%
COc1ccc(N2C(=O)CC(c3ccc([N+](=O)[O-])cc3)C2=O)cc1 (stereo not shown) | 12.2%
Cc1nc(-c2ccc(C(=O)N3CCCC3)cc2)cs1 | 9.11%
COc1ccc(NC(=O)CN(Cc2ccccc2)Cc2ccccc2)cc1S(N)(=O)=O | 8.16%

SMILES | hERG current change (%, negative = inhibition) at 1uM
Cc1cc(=O)oc2cc(OCC(=O)NCCCN3CCCC3=O)ccc12 | 45.4%
COCCC(=O)N1CCC(Oc2ccc(C(=O)NCc3cc(C)n(C)n3)cc2)CC1 | 15.7%
COc1ccc(CCN2CC(C(=O)OCC(=O)N(C)Cc3ccccc3)CC2=O)cc1OC (stereo not shown) | 3.84%
Nc1nnc(SCC(=O)Nc2cccc(S(=O)(=O)N3CCOCC3)c2)s1 | 21%
O=S(=O)(c1ccccc1)N1CCCC1c1cccs1 (stereo not shown) | 6.65%
CCn1nc(NC(=O)Cc2ccc(OC)cc2)c2cc3cc(C)ccc3nc21 | 6.43%
COCCn1c(CN(C)Cc2ccccc2)nc2c1c(=O)n(C)c(=O)n2C | 6.45%
O=C(Nc1ccc(F)cc1)c1ccc(CN2CCc3ccccc3C2)cc1 | 13%
COc1cc(OC)c(OC)cc1CN1CCN(c2ccccc2OC)CC1 | -0.441%
O=C(C(=O)N1CCOCC1)c1cn(CC(=O)N2CCCCC2)c2ccccc12 | 6.84%
CC(C)(C)OC(=O)N[C@H](C(=O)OC(C)(C)C)c1ccccc1 | 20.1%
O=C(NCc1cccnc1)c1cccc(NS(=O)(=O)c2ccc(Br)cc2)c1 | -1.43%
CC(=O)c1ccc(N(CC(=O)NCCc2ccccc2)C(=O)c2csnn2)cc1 | -14.6%
O=C(CSc1nc2ccccc2s1)CSc1nc2ccccc2s1 | 9.56%
O=C(CN1C(=O)S/C(=C\c2ccccc2F)C1=O)NC1C=CS(=O)(=O)C1 (stereo not shown) | 5.43%
CSCC[C@H](NC(=O)CCn1nnc2ccccc2c1=O)C(=O)O | 8.48%
CCOC(=O)C1CCC(CN(Cc2ccccc2)S(=O)(=O)c2ccc([N+](=O)[O-])cc2)CC1 (stereo not shown) | 11.2%
CC(C)OCCCNC(=O)c1ccccc1NC(=O)C1=CSCCO1 | 20.5%
Cc1c(-c2ccccc2)nc2ccccc2c1C(=O)NCc1cccs1 | 2.01%
COCCNC(=O)COc1ccc(Br)cc1Cl | 12.9%
CC(=O)Nc1ccc(S(=O)(=O)N2CCN(C(=O)N3CCCC3)CC2)cc1 | 19.1%
COC(=O)C1=CN(C)C=C(C(=O)OC)C1c1ccc(O)c(OC)c1 | 1.97%

SMILES | hERG current change (%, negative = inhibition) at 1uM
O=C(CN1CCN(Cc2ccccc2Cl)CC1)N/N=C/C=C/c1ccco1 | -23%
O=C(c1cc(C(=O)N2CCOCC2)c2nc3ccccc3n2c1)c1cc(Cl)cc(Cl)c1O | 4.86%
O=C(O)C(=O)O.O=[N+]([O-])c1ccccc1S(=O)(=O)N1CCN(CC2CC=CCC2)CC1 (stereo not shown) | -6.7%
CN(CCc1ccccc1)C1CCCN(S(=O)(=O)c2cccc(F)c2)C1 (stereo not shown) | -2.76%
CC(=O)c1ccc(NC(=O)Cc2cccs2)cc1 | 12.8%
CC(C)C(=O)Nc1csc(C(F)(F)F)c1-c1ccccc1 | 1.6%
COc1ccc(NC(=O)Cc2nnc(SCC(=O)c3ccccc3)n2C)cc1 | 8.78%
COc1ccccc1CNc1ncnc2c1nnn2Cc1ccccc1 | 5.89%
COc1ccc(OCC(=O)N2c3ccc(C)cc3C3CN(C)CCC32)cc1 (stereo not shown) | 10.9%
O=C(O)C1CC=CCC1C(=O)NC1CCCCC1 (stereo not shown) | 13%
CCS(=O)(=O)NCCc1csc(-c2ccc(OC)c(OC)c2)n1 | 11.2%
Cc1onc(-c2ccccc2Cl)c1C(=O)NCCN1Cc2ccccc2C1=O | 6.68%
CCC1(c2ccc(F)cc2)NC(=O)N(CC(=O)Nc2cc(C)on2)C1=O (stereo not shown) | 11.5%
Cc1cc(C)c2c(=O)n(CC(=O)NCCCN3CCOCC3)sc2n1 | 17.3%
CCOC1OC2C(CO)OC(n3cnc4c(N)ncnc43)C2O1 (stereo not shown) | 13.1%
COc1ccc(C(=O)Cn2nnc(-c3ccccc3-n3cnnn3)n2)cc1 | 8.34%
CCCOc1ccc(C(=O)C(CN2CCCC2)c2ccccc2)cc1.Cl (stereo not shown) | -13.8%
COc1ccc(Br)cc1CNC(=O)C1CCN(C(=O)N(C)C)CC1 | 6.84%
CC(C)(C)c1ccc(C(=O)NCC(=O)OCC(=O)N2CCCC2)cc1 | 8.66%
